Test results published in the supplement of paper PMC10126150.
Sequences with one replicate were seen in a single cluster, so their values are uncertain.

System: ATP
Assay: switch fluorescence ratio, 500 uM ATP over buffer (Cy3 cluster intensity, sum of 5 cycles each) (fold (ratio)); higher = stronger signal-on switching upon ATP binding; sequences stand for … in TCGTCGGCAGCGTCAGATGTGTATAAGAGACAGTTTTTTTTTTTTTTTTTTTTTTTTT…TC
Conditions: aptamer strand: ATP DNA aptamer (quencher-CACCTGGGGGAGTATTGCGGAGGAAGG + anchor), 100 nM annealed; ATP concentration: 500 uM; one replicate
Outline: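 Cy3-labelled switching-strand clusters on a modified Illumina MiSeq flow-cell were annealed to 100 nM quencher-labelled ATP aptamer, imaged in selection buffer, then imaged after 15 min with 500 uM ATP at 22 °C. Five buffer/ATP cycles ran, with NaOH stripping and re-annealing between them. The fluorescence ratio is summed target-cycle over summed buffer-cycle Cy3 intensity per cluster, averaged per switch-domain sequence. Clusters outside 100-1000 RFU were excluded.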
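Further: ATP exposure 15 min at 22 °C before imaging.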

Row | Sequence | switch fluorescence ratio
1 | ATCAGGCTGA | 0.986
2 | CGCGTGGCTT | 1.02
3 | ATTAGCGAGG | 1.03
4 | CAATGGAGTC | 0.969
5 | CGTTCGGTCC | 1.03
6 | AGTCACCCGC | 1.1
7 | ATCTGTGTGC | 0.988
8 | TGGCCACGCA | 1.03
9 | TTAGTAGCGG | 0.964
10 | CCCAGTTCCG | 1.01
11 | CGGAGCTGGG | 1.24
12 | GATTCTATTT | 0.993
13 | TCGCATTGTC | 2.05
14 | AGCTTGGGAC | 1.02
15 | ACTGACTTAG | 1.11
16 | AACCTGTAAT | 1.01
17 | GCCAGCGTGA | 1.19
18 | GGGTGGGGCC | 0.973
19 | ACAAGACAGC | 1.08
20 | CAGCCGGGTT | 1.01
21 | CGATTTAAAT | 0.997
22 | CGTACTGCTA | 1.07
23 | ATCCGACCTG | 0.979
24 | ATCCGACAGG | 1.09
25 | GAAATGCCGC | 0.965
26 | CGTCCAACTA | 1.08

Row | Sequence | switch fluorescence ratio
27 | ACGACGCCGT | 1.18
28 | ACATTTTCCG | 0.987
29 | CAGGCCGCAC | 2.73
30 | CTCGTTTCCA | 1.02
31 | CGGGAAGGCA | 0.965
32 | TCAACGGCGG | 0.98
33 | AGTAAATACG | 1.1
34 | GGTAGACCTT | 1.18
35 | CAGGGGTTAA | 0.99
36 | GAGCTCTCTT | 0.998
37 | GGAACCGTAT | 1.05
38 | TCCGGGGGAA | 1.08
39 | TATGGCTTGT | 0.984
40 | ATGCAGTGTC | 0.943
41 | AGCGAGGCGA | 1.1
42 | TACCTGGATT | 0.988
43 | AAGGGAGGCA | 0.977
44 | TCCCCTGTG | 2.74
45 | CCGAAGAAGA | 2.49
46 | TATTTGGCCT | 1.07
47 | GCCGTATCGT | 0.945
48 | AGCCAGGTTT | 1.1
49 | GTTAATCAAC | 1.01
50 | CATTCCAATT | 1.07
51 | TCCGCGACAT | 5.08
52 | AGTGTAGTTA | 1.01

Row | Sequence | switch fluorescence ratio
53 | AGGGGACTCA | 1.02
54 | CCGTGAGGGA | 1
55 | GCGGAGCCAA | 1.21
56 | AACATCGGAT | 0.99
57 | GGAACCCTGA | 1.02
58 | TCGTTAAGTA | 0.929
59 | CTGAAAGGGG | 0.962
60 | TATGGACGCT | 1.16
61 | CTGGATAACC | 0.972
62 | GACCGCTGTT | 1.01
63 | TAGTGAGGTG | 1.02
64 | CTTGCTGAAG | 0.997
65 | ATCATCTTT | 0.979
66 | GTGTTTATCC | 0.976
67 | TTAATACAAT | 1.03
68 | CAACTCGGAA | 1.06
69 | CCGGTTGCA | 1.12
70 | CTCGATTTTA | 1.02
71 | ATAGCAAGGG | 1.4
72 | AATGATCGGT | 1
73 | ACAAGTATTT | 1
74 | GTCTAAGAAA | 1.01
75 | CATAATGCG | 1.03
76 | AGTTCGAGTA | 0.979
77 | GCTACTACAC | 1.33
78 | TAGCAGGGGC | 1.06

Row | Sequence | switch fluorescence ratio
79 | TACACCTCGA | 1.02
80 | TCGAGCCGGT | 0.999
81 | ACGATGACGT | 1.05
82 | CTCTGGATTG | 1.06
83 | GATCGCAAAG | 2.54
84 | AAGATCCGAA | 1.02
85 | TTTGGCAATC | 2.77
86 | TAGGTTAGAC | 0.978
87 | GTCGGACTTT | 0.999
88 | GCGGTGAGCA | 1.03
89 | GGGTGCAGTC | 0.926
90 | TCCCCGGCGG | 1.11
91 | AGAAGTTTCA | 0.982
92 | TGTTCACAGA | 0.99
93 | TATAACAGTT | 1.17
94 | ATTTTAAGT | 1
95 | GCTCTCGGGA | 1.05
96 | CGACGGGGGC | 1.08
97 | ATCGATATTA | 0.974
98 | CAGTAGGCTA | 1.03
99 | ATGTTGCGAA | 0.991
100 | CGGGTACAGG | 1.08
101 | GCAATTAGG | 1.08
102 | ATGGCCTGT | 1.06
103 | CAGTTGCGGC | 1.03
104 | TTATTATTAA | 0.962

Row | Sequence | switch fluorescence ratio
105 | GGTCCAGCTT | 0.991
106 | TGCAGAACGG | 1.15
107 | ATAAAACCCT | 1.18
108 | GATGGCATG | 0.981
109 | CGGGTAATAT | 1.15
110 | CCAGCGCTCA | 1.37
111 | GAGTGTCCCC | 1.01
112 | GCGACAAGGT | 1.04
113 | CGCAGTTAAC | 2.2
114 | ACGTCGTCTT | 1.04
115 | GATGATACTC | 1.15
116 | GCACATCGGC | 1.03
117 | CATTAATTAG | 1.03
118 | CCCTTGCGCT | 1.12
119 | ATAAGAGTGC | 0.997
120 | ATAGTTATGA | 1.04
121 | GGCCGGTATA | 0.99
122 | TACGTTGGG | 0.966
123 | CGGGTGCCGA | 1.01
124 | GCAAACCTAG | 0.995
125 | TTGGGGCCTA | 0.973
126 | GGTGACTCCG | 1.04
127 | GGTGAACCCT | 1.03
128 | CTATGGAGCT | 1
129 | GATGTTGCCT | 1.06
130 | TATTTTGCTG | 0.984

Row | Sequence | switch fluorescence ratio
131 | TGCGTATTGT | 1.05
132 | GTATGACGGG | 1.02
133 | TGTGGTCAGG | 1.06
134 | TACGTGGTAC | 2.57
135 | AGTTGCATAT | 0.999
136 | ACCGGCCGTG | 1
137 | GAGTTTTTGC | 1.02
138 | ACCCCTTGAG | 1.03
139 | ATTTGTTGTA | 0.964
140 | CTGTGTTTTC | 1.01
141 | CAACTATTCG | 0.99
142 | ATCCCGTGAA | 1.05
143 | CCTAAAGGGA | 1.01
144 | GAACGGTCCC | 1.01
145 | CATAGGTTTG | 0.972
146 | CGTGTCATTG | 1.01
147 | AGCAGCTTTC | 1.08
148 | GCATTTGAG | 0.959
149 | ACCCCCCGCC | 1.47
150 | TGCGAAGTGC | 1.1
151 | TAAGCACATC | 1.44
152 | GCGTATCTGT | 0.971
153 | CGGTGTGAAA | 1.12
154 | GTTTTACGCT | 0.959
155 | ATTCGCACAA | 1.2
156 | TGACCACC | 1.21

Row | Sequence | switch fluorescence ratio
157 | ACTGTGAC | 1.24
158 | GGTCCTGTAT | 0.991
159 | GGGTGTGCGA | 0.987
160 | AGGGTAAGTG | 0.965
161 | AACGTTGAAA | 1.03
162 | AAGCAGGTTC | 1.02
163 | TCGTTAAGT | 0.97
164 | TTTGAAATGG | 1.57
165 | GGTAAATCC | 0.968
166 | GAGTGGCGGA | 1
167 | ACGGGCAAGA | 1.04
168 | ATACCAGGGC | 1.08
169 | ATCGGGTACT | 1.03
170 | TTGGAGGA | 1.05
171 | GATCATGAGG | 0.993
172 | GGCTAGGTTT | 0.992
173 | TCAGCCGTCA | 0.95
174 | TCGGACGGA | 1.1
175 | TAGTCGATAT | 1.08
176 | TTTACATGGA | 0.98
177 | TCACAGTACG | 1.41
178 | AGGGACCTCA | 1
179 | AGGCTTGTCC | 1.04
180 | AGGGACGCTC | 1.03
181 | GTAATGGTTA | 0.956
182 | AGCGGCTTG | 0.957

Row | Sequence | switch fluorescence ratio
183 | GTATCGTGAG | 1.04
184 | AGTAAGATGA | 1.05
185 | GCACCTAATA | 1.05
186 | ATCGGGGCCC | 0.976
187 | TTAAATCGAG | 0.999
188 | TGCATCCACC | 1.08
189 | GGGGAGTTCC | 1.1
190 | GCCTCCCATT | 1.95
191 | TGCGGGTGCC | 1.02
192 | AATTTATAT | 1.03
193 | GTAGTAAGCA | 1.03
194 | GCGGATAGG | 1.01
195 | CCATAGGCAA | 4.65
196 | GGTGTCAAAC | 0.977
197 | ACAGGGCAG | 1.06
198 | TTACTTACTC | 1.21
199 | TATGGGTTGC | 0.942
200 | GAGGGACGTA | 0.985
201 | ACGTGCATGC | 1.02
